In a collection of fitness landscapes (doi:10.1016/j.celrep.2020.107928):
Whole data set: some 81,000 sequences, median “one-hybrid fitness for binding NBS DNA” near -0.1, cut for the highest 2% near 0.36. This is one part of the list.

B1: Caulobacter ParB omega fusion; a variant is named by its letters at X, in order, B8GW30 (parent)
chain: MESVVVGEPGMSEGRRGLGRGLSALLGEVDAAPAQAPGEQLGGSREAPIEILQRNPDQPRRTFREEDLEDLSNSIREKGVLQPILVRPSPDTAGEYQIVAGERAWRAAQRAGLKTVPIMVRELDDLAVLEIGIIENVQRADLNVLEEALSYKVLMEKFERTQENIAQTIGKSXSHVANXMRLLXLPDEVQSYLVSGELTAXHARAIAAAADPVALAKQIIEGGLSVRETEALARKAPNLSAGKSKGGRPPRVKDTDTQALESDLSSVLGLDVSIDHRGSTGTLTITYATLEQLDDLCNRLTRGI

Variants of: B1
Experiment: one-hybrid fitness for binding NBS DNA (the Noc-binding site; scaled: cognate 1, non-cognate 0); higher = stronger binding
Details: with NBS DNA site
Procedure, shortened: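 On M9-minus-histidine containing 0.1 mM IPTG and 5 mM 3-AT, E. coli USO cells with a HIS3 reporter, site 19 bp from the promoter, grew 48 hours at 37°C to select Caulobacter ParB libraries randomised at four specificity codons. Plasmids from before and after were Illumina-sequenced, with three replicate libraries pooled and variants under 10 reads left out. Fitness is the log change in variant-to-wild-type read ratio, rescaled against cognate and non-cognate.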

Variant	one-hybrid fitness for binding NBS DNA
VRRD	≤ 0.2
LGCT	≤ 0.2
PTPQ	≤ 0.2
HCDL	≤ 0.2
AGER	≤ 0.2
RIGD	≤ 0.2
ISEA	≤ 0.2
SGMF	≤ 0.2
KRIK	≤ 0.2
RCHM	≤ 0.2
CFHT	≤ 0.2
GENT	≤ 0.2
RCCW	≤ 0.2
HVHW	≤ 0.2
IALY	≤ 0.2
NCTK	≤ 0.2
LRAK	≤ 0.2
QKTF	≤ 0.2
TKWF	≤ 0.2
YKLT	≤ 0.2
HTMP	≤ 0.2
TRSI	≤ 0.2
QVSV	≤ 0.2
IIPV	≤ 0.2

Variant	one-hybrid fitness for binding NBS DNA
YTIV	≤ 0.2
EHHR	≤ 0.2
QIQA	≤ 0.2
RKSN	≤ 0.2
VKKT	≤ 0.2
PGMM	≤ 0.2
QMYL	≤ 0.2
KRSY	≤ 0.2
QLAR	0.478
KDVC	≤ 0.2
SESQ	≤ 0.2
CQCR	≤ 0.2
PPMK	≤ 0.2
PLKG	≤ 0.2
RQVG	≤ 0.2
TRGQ	≤ 0.2
FDLP	≤ 0.2
RWLF	≤ 0.2
NPTI	≤ 0.2
YQCC	≤ 0.2
MFQR	≤ 0.2
RSER	≤ 0.2
HSAE	≤ 0.2
NQRR	≤ 0.2

Variant	one-hybrid fitness for binding NBS DNA
DQKL	≤ 0.2
LMMY	≤ 0.2
PTNR	≤ 0.2
VANA	≤ 0.2
CKLC	≤ 0.2
QYYK	≤ 0.2
FADR	≤ 0.2
WIGG	≤ 0.2
VYCR	≤ 0.2
NRGY	≤ 0.2
RWDL	≤ 0.2
ECIR	≤ 0.2
ATNI	≤ 0.2
EDSF	≤ 0.2
KAKY	≤ 0.2
ACSC	≤ 0.2
PPFG	≤ 0.2
SSGR	≤ 0.2
HWLV	≤ 0.2
YRHN	≤ 0.2
SDQY	≤ 0.2
VGDN	≤ 0.2
TTVL	≤ 0.2
EPIS	≤ 0.2

Variant	one-hybrid fitness for binding NBS DNA
TEDC	≤ 0.2
QMPV	≤ 0.2
DLEG	≤ 0.2
CPDD	≤ 0.2
DPAL	≤ 0.2
RMHA	0.237
FLRK	≤ 0.2
LDWS	≤ 0.2
RTSY	≤ 0.2
PTRL	≤ 0.2
GHKG	≤ 0.2
TEAS	≤ 0.2
NTSP	≤ 0.2
CPVL	≤ 0.2
TFDG	≤ 0.2
AWRS	≤ 0.2
FLAT	≤ 0.2
RSRT	0.602
CFDR	≤ 0.2
YAKM	≤ 0.2
SCNE	≤ 0.2
SLDR	≤ 0.2
TFMM	≤ 0.2
RQEN	≤ 0.2

Variant	one-hybrid fitness for binding NBS DNA
DTYS	≤ 0.2
VRNM	≤ 0.2
VPSL	≤ 0.2
YLIC	≤ 0.2
SFNI	≤ 0.2
HVRG	≤ 0.2
CHHS	≤ 0.2
VQHY	≤ 0.2
DLVG	≤ 0.2
CGSA	≤ 0.2
AATW	≤ 0.2
SRER	≤ 0.2
GCWW	≤ 0.2
SALD	≤ 0.2
TDPT	≤ 0.2
IVAK	≤ 0.2
RQGT	0.351
KYGV	≤ 0.2
THLH	≤ 0.2
VKYP	≤ 0.2
HLTG	≤ 0.2
CPMT	≤ 0.2
NKTE	≤ 0.2
EGYL	≤ 0.2

Variant	one-hybrid fitness for binding NBS DNA
EMHF	≤ 0.2
QSCE	≤ 0.2
FVLG	≤ 0.2
MLVS	≤ 0.2
RNQE	≤ 0.2
GTMI	≤ 0.2
QKEH	≤ 0.2
IRTR	0.302
RWDA	≤ 0.2
ENDR	≤ 0.2
VICT	≤ 0.2
CHIR	≤ 0.2
QDKS	≤ 0.2
NLRA	≤ 0.2
SAHN	≤ 0.2
TWKR	≤ 0.2
RKID	≤ 0.2
VMFL	≤ 0.2
QNSR	≤ 0.2
RSKF	≤ 0.2
DRIT	≤ 0.2
CIRS	≤ 0.2
STLM	≤ 0.2
PNGL	≤ 0.2

Variant	one-hybrid fitness for binding NBS DNA
CQMR	≤ 0.2
VPCV	≤ 0.2
PPLH	≤ 0.2
HSGL	≤ 0.2
PPKE	≤ 0.2
LWAC	≤ 0.2
LWFS	≤ 0.2
DMVS	≤ 0.2
AEPA	≤ 0.2
NNEF	≤ 0.2
QIGY	≤ 0.2
FHKS	≤ 0.2
KPSE	≤ 0.2
MLTP	≤ 0.2
RTPV	≤ 0.2
PPGR	≤ 0.2
HSSF	≤ 0.2
PKSA	≤ 0.2
FIKR	≤ 0.2
TVNA	≤ 0.2
GPLW	≤ 0.2
AESF	≤ 0.2
TIKW	≤ 0.2
TRVA	≤ 0.2

Variant	one-hybrid fitness for binding NBS DNA
TSQP	≤ 0.2
ETSC	≤ 0.2
CKAE	≤ 0.2
KLNL	≤ 0.2
LIWC	≤ 0.2
KIKC	≤ 0.2
CHER	≤ 0.2
QVTP	≤ 0.2
WLLH	≤ 0.2
AFWW	≤ 0.2
WACC	≤ 0.2
STFC	≤ 0.2
RWGI	≤ 0.2
GQPM	≤ 0.2
WAFR	≤ 0.2
PTKA	≤ 0.2
RLPT	≤ 0.2
DGYT	≤ 0.2
PLQI	≤ 0.2
SAFH	≤ 0.2
TKDN	≤ 0.2
DLKR	≤ 0.2
RIMM	≤ 0.2
MVNS	≤ 0.2

Variant	one-hybrid fitness for binding NBS DNA
SNPF	≤ 0.2
IRCS	≤ 0.2
PVNG	≤ 0.2
QHDY	≤ 0.2
KPTT	≤ 0.2
KCSR	≤ 0.2
QGEG	≤ 0.2
VIHG	≤ 0.2
SIGV	≤ 0.2
TATE	≤ 0.2
ARAK	≤ 0.2
MAVT	≤ 0.2
KWHL	≤ 0.2
RGQT	≤ 0.2
QVMD	≤ 0.2
NWPE	≤ 0.2
HTTR	≤ 0.2
PSAA	≤ 0.2
ACLT	≤ 0.2
EATA	≤ 0.2
SITY	≤ 0.2
IHGP	≤ 0.2
EGKQ	≤ 0.2
NATW	≤ 0.2

Variant	one-hybrid fitness for binding NBS DNA
MLDV	≤ 0.2
MAKN	≤ 0.2
MWKC	≤ 0.2
EVEG	≤ 0.2
APQM	≤ 0.2
PKLY	≤ 0.2
RIKC	0.284
YFHS	≤ 0.2
ATFG	≤ 0.2
IHRS	≤ 0.2
LKHK	≤ 0.2
WSYA	≤ 0.2
RVRR	0.626
RQCE	≤ 0.2
QTWI	≤ 0.2
PRWR	≤ 0.2
VLIC	≤ 0.2
HGKF	≤ 0.2
FHCT	≤ 0.2
EDQG	≤ 0.2
SSAW	≤ 0.2
WYCV	0.366
KSVT	≤ 0.2
AFEG	≤ 0.2

Variant	one-hybrid fitness for binding NBS DNA
GHTV	≤ 0.2
GQVR	≤ 0.2
WHCG	≤ 0.2
YPPT	≤ 0.2
GNER	≤ 0.2
FARR	≤ 0.2
ANWG	≤ 0.2
IPSY	≤ 0.2
AVCV	≤ 0.2
HVET	≤ 0.2
GCSE	≤ 0.2
TLIK	≤ 0.2
LKDC	≤ 0.2
DIDS	≤ 0.2
LNSR	≤ 0.2
WTGT	≤ 0.2
QYHG	≤ 0.2
LAPE	≤ 0.2
REGR	≤ 0.2
AILK	≤ 0.2
RVNY	≤ 0.2
CHLY	0.222
NWSG	≤ 0.2
GDPD	≤ 0.2

Variant	one-hybrid fitness for binding NBS DNA
MRQR	≤ 0.2
RYEQ	≤ 0.2
FQPL	≤ 0.2
HQNV	≤ 0.2
MPPA	≤ 0.2
GTPV	≤ 0.2
AWGG	≤ 0.2
PPFS	≤ 0.2
TTHW	≤ 0.2
FTVG	≤ 0.2
LHPT	≤ 0.2
MSDQ	≤ 0.2
RPAQ	≤ 0.2
SYPS	≤ 0.2
LGNY	≤ 0.2
VTHS	≤ 0.2
CRKS	≤ 0.2
DATD	≤ 0.2
KRQV	≤ 0.2
PKKA	≤ 0.2
CMFG	≤ 0.2
GPPP	≤ 0.2
DWKS	≤ 0.2
HGWD	≤ 0.2

Variant	one-hybrid fitness for binding NBS DNA
NTRS	≤ 0.2
DSTI	≤ 0.2
YAME	≤ 0.2
STSY	≤ 0.2
DCKY	≤ 0.2
TVFY	≤ 0.2
MKYY	≤ 0.2
YAPG	≤ 0.2
AVPV	≤ 0.2
ETIY	≤ 0.2
DMHV	≤ 0.2
HFAT	≤ 0.2
AQTD	≤ 0.2
LNPE	≤ 0.2
ACDS	≤ 0.2
SESH	≤ 0.2
CMLG	≤ 0.2
QFCG	≤ 0.2
